Measurements reported in the supplement of paper PMC3334620.
Over roughly 33,000 sequences, “E-score (-0.5 to 0.5)” has its median near -0.043; the highest 2% begin near 0.37. The list shows a part of the results.

Each sequence was assayed against T1, Upc2 (UniProt Q12151) (assay: PBM E-score (8-mer binding enrichment) (E-score (-0.5 to 0.5)); higher = stronger / more preferred TF binding; most listed sequences are background and not binding sites). Conditions: protein concentration: 200 nM; construct: GST-full length.
T1 sequence: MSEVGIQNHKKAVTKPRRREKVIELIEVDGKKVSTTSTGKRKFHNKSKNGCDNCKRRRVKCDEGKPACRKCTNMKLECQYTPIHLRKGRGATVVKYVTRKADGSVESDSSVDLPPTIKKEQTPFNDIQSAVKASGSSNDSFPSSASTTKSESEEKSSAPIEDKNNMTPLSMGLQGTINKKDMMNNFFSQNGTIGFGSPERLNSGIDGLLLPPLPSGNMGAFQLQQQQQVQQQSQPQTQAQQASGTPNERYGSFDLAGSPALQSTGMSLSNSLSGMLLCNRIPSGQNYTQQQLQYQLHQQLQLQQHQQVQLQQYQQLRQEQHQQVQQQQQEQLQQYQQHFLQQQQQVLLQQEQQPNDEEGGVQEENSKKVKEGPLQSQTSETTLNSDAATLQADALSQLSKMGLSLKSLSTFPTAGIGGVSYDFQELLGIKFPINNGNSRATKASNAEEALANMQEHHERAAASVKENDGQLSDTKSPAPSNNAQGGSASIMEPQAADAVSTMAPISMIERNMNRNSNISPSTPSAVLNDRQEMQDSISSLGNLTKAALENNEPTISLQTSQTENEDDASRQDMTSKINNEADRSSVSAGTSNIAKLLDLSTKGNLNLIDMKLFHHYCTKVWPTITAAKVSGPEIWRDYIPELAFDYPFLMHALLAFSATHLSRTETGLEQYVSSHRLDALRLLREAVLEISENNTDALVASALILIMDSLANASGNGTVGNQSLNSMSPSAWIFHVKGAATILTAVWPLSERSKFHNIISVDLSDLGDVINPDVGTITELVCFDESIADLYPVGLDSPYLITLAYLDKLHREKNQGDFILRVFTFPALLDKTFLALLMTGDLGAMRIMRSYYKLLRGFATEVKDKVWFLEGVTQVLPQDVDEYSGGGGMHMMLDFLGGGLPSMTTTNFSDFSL
How it was run: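 Bound GST-tagged yeast transcription factors, applied at about 100-200 nM to double-stranded universal all-10-mer Agilent arrays, were detected with fluorescent anti-GST. Scans were normalised with masliner. A modified Wilcoxon-Mann-Whitney statistic, the E-score, was assigned to each ungapped eight-base word pooled with its reverse complement by the Universal PBM Analysis Suite.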

Sequence | PBM E-score
TGTTATAA | 0.103
AACCCAAT | -0.154
CAACCCAC | -0.115
CCCTGTAC | 0.154
ATTTCTTG | -0.109
GTAAGCCA | -0.026
CATCATGC | -0.134
AAGCGGAA | 0.0475
GACGCAAC | -0.0716
AAGTCCAT | -0.197
ACAAGGTC | -0.13
ATCCATCC | -0.00885
TCTGAAAA | -0.169
CATATAAA | 0.0469
GAGCCACC | -0.176
ATGCAAAA | -0.00889
CATCACCG | 0.0172
CGGATCTC | 0.0169
CCTCGAAC | 0.0791
CTCTCGGA | 0.0379
GCACTTCA | -0.122
ATATTCTC | -0.0883
CATATGAC | 0.0367
GAGTTACA | -0.0758
CATTATGC | 0.0397
CCCATATA | -0.095
GGGACACA | -0.126

Sequence | PBM E-score
AGTGAAAC | -0.0497
CCCATCCG | 0.192
CGAACCTC | 0.119
ACTGGGCC | -0.245
AACGGTGC | 0.237
CCCAAACC | 0.0006
CAATAATA | -0.0436
AAGTGGAA | -0.0348
CAGCCTTA | -0.156
TCATTCAA | -0.0375
GGAGTGAA | 0.00707
GTGTCGGA | 0.0733
TAGAAGCA | -0.191
AGGTGTTG | -0.0609
ACCGCACC | 0.0201
AACCATAA | -0.0292
AGCACCGC | 0.0434
AGCTGAAG | -0.194
CCCGGCAC | -0.188
CCCAAGTA | -0.0707
CTAGCAGA | -0.156
AATCAAGG | -0.046
CTGAGGGA | -0.138
GCAGTTTA | 0.0629
GTACGCAA | 0.247
ATTTAAAA | -0.0332
GTCAAGAA | 0.0576

Sequence | PBM E-score
ATTGTGAC | -0.129
GGGACCTA | 0.00758
CGCACACG | 0.121
AGAGTCTA | 0.134
GTCTTCTA | -0.128
CGCTTTGC | -0.0514
AGGCGCAT | -0.00045
AGTCACGG | -0.137
CTAATTCC | -0.116
CACACGCC | -0.168
AGGAGGTG | -0.347
ACAAGCTG | -0.00021
CGAGATCC | 0.164
CACCTAAA | 0.0827
AAGCAGTA | -0.0632
CATGGTCA | 0.0922
GCGTAGCC | 0.0116
ATCGAGAA | 0.0338
AGAAAGGG | -0.102
GGCTAATA | 0.0467
CAAGCGCG | 0.113
CTGGCAGC | -0.151
ACGCGTCC | -0.0191
AGCATTTA | -0.00316
AGACTTGC | -0.0795
CGGATCCC | -0.0506
